The whole screen tested about 310,000 compounds, of which about 14,000 (4.5%) showed an effect of 50% or more. The effect is printed as a negative number. This is one part of the list.
Biological target: human ether-à-go-go-related gene (hERG) potassium channel (human, UniProt Q12809)
Assay: primary screen, population patch clamp on CHO cells stably expressing hERG
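Note: peak tail current of the secondary pulse compared with the same well before compound.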

Sequence of human ether-à-go-go-related gene (hERG) potassium channel (Q12809 whole entry, looked up): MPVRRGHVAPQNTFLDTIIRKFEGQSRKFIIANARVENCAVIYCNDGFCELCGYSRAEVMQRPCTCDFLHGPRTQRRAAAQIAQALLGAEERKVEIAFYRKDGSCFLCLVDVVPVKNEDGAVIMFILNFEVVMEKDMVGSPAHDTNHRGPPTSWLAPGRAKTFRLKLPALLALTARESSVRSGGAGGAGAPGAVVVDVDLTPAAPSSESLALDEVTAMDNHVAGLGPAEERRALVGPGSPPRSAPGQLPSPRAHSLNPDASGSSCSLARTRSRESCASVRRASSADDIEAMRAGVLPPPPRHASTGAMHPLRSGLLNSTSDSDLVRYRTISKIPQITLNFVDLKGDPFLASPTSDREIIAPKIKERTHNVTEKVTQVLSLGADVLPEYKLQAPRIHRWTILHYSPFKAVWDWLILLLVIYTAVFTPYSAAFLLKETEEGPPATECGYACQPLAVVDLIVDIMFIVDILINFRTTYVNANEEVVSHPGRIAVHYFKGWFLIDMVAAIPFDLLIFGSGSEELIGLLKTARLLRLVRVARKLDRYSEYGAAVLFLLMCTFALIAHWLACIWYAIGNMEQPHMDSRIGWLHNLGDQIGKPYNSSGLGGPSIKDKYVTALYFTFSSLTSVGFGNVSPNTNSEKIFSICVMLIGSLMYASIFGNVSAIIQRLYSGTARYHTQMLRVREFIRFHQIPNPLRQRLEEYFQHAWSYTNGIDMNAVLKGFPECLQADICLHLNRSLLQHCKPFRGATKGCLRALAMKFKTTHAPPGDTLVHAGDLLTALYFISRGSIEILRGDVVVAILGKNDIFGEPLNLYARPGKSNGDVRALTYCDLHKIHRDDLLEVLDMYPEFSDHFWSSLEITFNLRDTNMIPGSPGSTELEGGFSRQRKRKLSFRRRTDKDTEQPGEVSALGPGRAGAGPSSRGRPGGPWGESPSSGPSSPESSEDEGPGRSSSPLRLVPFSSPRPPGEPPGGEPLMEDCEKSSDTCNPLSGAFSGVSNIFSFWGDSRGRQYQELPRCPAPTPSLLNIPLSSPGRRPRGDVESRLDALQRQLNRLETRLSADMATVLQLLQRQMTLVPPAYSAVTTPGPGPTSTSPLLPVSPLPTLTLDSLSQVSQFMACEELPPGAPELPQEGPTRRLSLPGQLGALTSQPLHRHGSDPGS

Row | Structure (SMILES) | hERG current change (%, negative = inhibition) at 10uM [%]
1 | O=C(CSc1nnc(-c2ccccc2F)n1C1CC1)NCc1ccco1 | -12.8
2 | CCN1CCN(S(=O)(=O)c2c[nH]c(C(=O)OC)c2)CC1 | 7.98
3 | COc1ccc(/C=C/C(=O)OC(C)CN2CCCCC2)cc1.Cl (stereo not drawn) | -26.2
4 | Cc1sc2ncn(CC(=O)N3CCC(C(N)=O)CC3)c(=O)c2c1S(=O)(=O)N1CCOCC1 | 9.52
5 | O=C(Nc1ccccc1)C1CC2CCC1C2 (stereo not drawn) | 12.8
6 | Cl.N=C1c2ccccc2CN1CC(=O)c1ccccc1 | -25.1
7 | CS(=O)(=O)N1CCC(C(=O)NCc2ccncc2)CC1 | 5.2
8 | CC(OC(=O)CCNS(=O)(=O)c1cccs1)C(=O)Nc1ccc(S(N)(=O)=O)cc1 (stereo not drawn) | 0.281
9 | CCN(CC)C(=O)c1[nH]cnc1C(=O)N[C@@H](C)c1ccccc1 | 20.2
10 | CCN(CC1CCCO1)C(=O)C1CCN(C2CCN(Cc3ccccc3C)CC2)CC1 (stereo not drawn) | 1.77
11 | Cc1ccc(Cn2nnc3c(=O)n(CC(=O)NCc4ccc5c(c4)OCO5)cnc32)cc1 | -12.6
12 | CC(C)OCCCNC(=O)COc1ccc2oc3c(c2c1)CCCC3 | -4.97
13 | CCN1C(=O)C(=O)N(CC(=O)c2cc(C)n(C3CC3)c2C)C1=O | -3.71
14 | COc1ccc(NC(=S)NC(NC(C)=O)C(Cl)(Cl)Cl)c([N+](=O)[O-])c1 (stereo not drawn) | 0.178
15 | NS(=O)(=O)c1ccc(CCNC(=O)C2CCN(c3ncnc4c3nc3n4CCCCC3)CC2)cc1 | 9.07
16 | O=C(c1cc(Br)c(Br)s1)N1CCN(c2ccccn2)CC1 | -14.2
17 | Cc1c(NCc2ccccc2O)c(=O)n(-c2ccccc2)n1C | -4.34
18 | Cc1[nH]c(=O)[nH]c(=O)c1Sc1ccccc1[N+](=O)[O-] | 20.1
19 | CCCCCCNCC(=O)N1CCC(Cc2ccccc2)CC1 | -71.7
20 | Cc1ccc2nsnc2c1NC(=O)c1ccc(-c2cc(Cl)ccc2Cl)o1 | 11.7
21 | O=c1nc2ccc(Cl)cn2c2ccc(S(=O)(=O)N3CCOCC3)cc12 | -6.92
22 | CCCC(C)c1nnc(NC(=O)CS(=O)(=O)Cc2ccccc2)s1 (stereo not drawn) | 2.52

Row | Structure (SMILES) | hERG current change (%, negative = inhibition) at 10uM [%]
23 | O=C(NCCCN1CCCC1=O)Nc1ccccc1F | 18.7
24 | O=C(Nc1cccc(N2C(=O)C3C4C=CC(C4)C3C2=O)c1)c1cccs1 (stereo not drawn) | 23.2
25 | COCCn1c(SCC(=O)Nc2cccc(OC)c2)nnc1-c1ccccc1 | -17.4
26 | N#Cc1c(Sc2ncc(C(F)(F)F)cc2Cl)nsc1C/C=N\OCc1ccccc1Br | 2.35
27 | COc1cccc(-n2cc(-c3ccc(F)cc3)[nH]c2=S)c1 | -17.5
28 | COc1cc(C=O)ccc1OCCOCCOc1cc(C)ccc1Cl | -20.7
29 | COc1ccc2c(c1)OC1=C(C(=O)CCC1)C2C1=C(O)CCCC1=O (stereo not drawn) | 10.7
30 | CC(CC(=O)O)CC(=O)Nc1cccc([N+](=O)[O-])c1 (stereo not drawn) | 11.4
31 | COc1cc(C(=O)N2CCc3ccccc32)c([N+](=O)[O-])cc1OC | 17.2
32 | O=C(O)c1ccccc1-c1csc(-c2ccccc2)n1 | 5.06
33 | CCN(CC)c1ccc(/C=N/N2C(C)CCCC2C)c(O)c1 (stereo not drawn) | -4.12
34 | Cn1c(SCC(=O)Nc2ccc3c(c2)OCCO3)nnc1-c1cccnc1 | 12
35 | CC(NC(=O)Nc1ccc2c(c1)OCO2)C1CCCO1 (stereo not drawn) | 14.4
36 | CCCCCC(=O)OC(CN1CCCC1=O)C[NH+]1CCCCCC1.[Cl-] (stereo not drawn) | -3.84
37 | COC(=O)c1ccc(CSc2nnc(NC(=O)C3CC(=O)N(c4ccc5c(c4)OCCO5)C3)s2)cc1 (stereo not drawn) | 4.54
38 | NC(=O)CSc1nnc(COc2ccccc2)n1Cc1ccco1 | 14
39 | COc1cccc(N(CC(=O)Nc2cccc(F)c2)S(C)(=O)=O)c1 | -3.51
40 | Cc1ccc(CNC(=O)c2ccccc2SCC(=O)NCC2CCCCC2)cc1 | -6.47
41 | CCOC(=O)C1(C)NC(c2cccs2)C2C(=O)N(c3ccccc3)C(=O)C21 (stereo not drawn) | 9.37
42 | Cc1n[nH]c(C)c1N1C(=O)c2cccc3c(Br)ccc(c23)C1=O | 12.1
43 | Cc1ccc(NC(=O)NCc2c(C)nn(C)c2C)cc1Cl | 8
44 | Fc1ccc(-c2csc(N3CCSCC3)n2)cc1 | 17.6

Row | Structure (SMILES) | hERG current change (%, negative = inhibition) at 10uM [%]
45 | COc1cc(/C=C2\SC(=S)N(Nc3ccccc3)C2=O)ccc1O | 2.26
46 | Cc1cccc(NC(=O)NCC(c2ccc(F)cc2)N2CCN(C)CC2)c1 (stereo not drawn) | -42.6
47 | O=C(Nc1nc(-c2ccc(S(=O)(=O)N3CCCCCC3)cc2)cs1)c1cccs1 | 6.39
48 | COc1cccc2c1Oc1ncccc1N(C(=O)CCC(=O)NCc1ccccc1Cl)C2 | -18.9
49 | C=CCN1C(=O)NC(=O)/C(=C\c2ccc(-c3ccccc3[N+](=O)[O-])o2)C1=O | 0.207
50 | COc1ccc(-c2cc(C(F)(F)F)nc(S(=O)(=O)CCC(=O)N3CCOCC3)n2)cc1 | 4.34
51 | O=C(COC(=O)CNS(=O)(=O)c1ccc(F)c(F)c1F)NCCc1ccccc1 | -10.4
52 | Cc1cc(C)c(C)c(S(=O)(=O)N2CCN(CC(=O)Nc3ccc([N+](=O)[O-])cc3)CC2)c1C | 15.4
53 | COc1cc(C(=S)NC2CCCCC2)ccc1O | -5.09
54 | COc1cc(OC)cc(C(=O)NNC(=O)NC2CCCCC2)c1 | 2.32
55 | O=C(c1ccc2ccccc2c1)C1CCCN(S(=O)(=O)c2cccnc2)C1 (stereo not drawn) | 1.33
56 | CCCC(C)NC(=S)NC(=O)c1cc(S(=O)(=O)N2CCOCC2)ccc1C (stereo not drawn) | -6.01
57 | Cc1nnc(SC(C)C(=O)Nc2ccc3ccccc3c2)[nH]c1=O (stereo not drawn) | 27.1
58 | O=C(NCc1ccc(Cl)cc1)c1cccc(NC2=NC3CS(=O)(=O)CC3S2)c1 (stereo not drawn) | 0.491
59 | Cc1csc(SCC(=O)Nc2nccs2)n1 | 7.54
60 | OCC(O)C(O)C(O)C(O)C1NCCS1 (stereo not drawn) | 0.867
61 | CCC(C(=O)NCCc1ccc(OC)cc1OC)n1nc(C)n2c(cc3occc32)c1=O (stereo not drawn) | -0.0107
62 | CCOc1ccc(S(=O)(=O)N2Cc3ccccc3CC2C(=O)O)cc1 (stereo not drawn) | 11.2
63 | COc1cc(Br)c(CN2CCCN(C)CC2)cc1OC | -0.597
64 | NC(=O)CNCCC(c1ccccc1)c1ccccc1 | -36
65 | CCOC(=O)c1ccc(N2CSC3=C(C#N)C(c4cccs4)CC(=O)N3C2)cc1 (stereo not drawn) | 5.74
66 | Cn1nc(C(=O)N2CCCCC2)c2c1-c1ccccc1S(=O)(=O)C2 | 14.7

Row | Structure (SMILES) | hERG current change (%, negative = inhibition) at 10uM [%]
67 | COC(=O)c1ccc(N2NC(=O)/C(=C/c3ccc(OC)c(OC)c3)C2=O)cc1 | 17.8
68 | CCC1=NC(c2ccc(OC)cc2OC)N(O)C1(C)C (stereo not drawn) | -6.12
69 | COc1cccc2sc(N(CCCN(C)C)C(=O)c3ccc(S(=O)(=O)N4CCc5ccccc5C4)cc3)nc12.Cl | 3.58
70 | Cc1oc(C)c2c(=O)ccc3c(c12)OC(N)=C(C#N)C3c1ccccc1Cl (stereo not drawn) | 18.6
71 | Cc1ccc(C(=O)Nc2ccccc2C(=O)NC2CCCCC2)cc1S(=O)(=O)N1CCOCC1 | 20.8
72 | O=C1CCc2ccc(OCCCCN3CCN(c4cccc(Cl)c4Cl)CC3)cc2N1 | -5.73
73 | COc1cc2cnc(-c3ccccc3)c(C(=O)c3ccc(F)cc3)c2cc1OC | 1.89
74 | COc1cc2ccccc2cc1C(=O)N(CCN(C)C)c1nc2c(C)cccc2s1.Cl | 19.2
75 | O=c1c2ccccc2nc(-c2ccco2)n1/N=C/c1ccccc1O | 9.64
76 | Clc1ccc(-c2ccc(C=Nc3ccc(N4CCOCC4)cc3)o2)c(Cl)c1 | 9.64
77 | COc1ccc(C=C2C(=O)N(C)C(=O)N(C)C2=O)cc1COc1ccc(NC(C)=O)cc1 | 6.99
78 | Brc1cccc(OCCCCn2cncn2)c1 | 11.2
79 | O=C(C1=C[C@@H](c2ccccc2)C[C@@H](OCCCCO)O1)N1CCN(Cc2ccc3c(c2)OCO3)CC1 | -55.2
80 | Cc1cc(Br)ccc1OCCCCN1CCCCC1.O=C(O)C(=O)O | -78.9
81 | Cc1ccc2c(c1)N(CC(=O)N1CCCCCC1)C(=O)CO2 | -19.7
82 | O=C1c2cccc3cccc(c23)N1CN1CCN(c2ccccn2)CC1 | 6.61
83 | Cc1cc(OC(C)C(=O)NC2CC(C)(C)NC(C)(C)C2)c2c(C)cc(=O)oc2c1 (stereo not drawn) | 12.9
84 | COc1ccc(N2CCN(C(=O)CN(c3ccc(OC)cc3)S(=O)(=O)c3ccccc3)CC2)cc1 | -22.7
85 | Cc1ccc(CCCOC(=O)CN2CCCCC2)cc1 | 1.34
86 | Cc1ccc(S(=O)(=O)N2CCC(=O)N(CCOCc3cccc(C(F)(F)F)c3)CC2)cc1 | -44.2
87 | Cc1cc(/C=C2\NC(=S)N(C)C2=O)ccc1N1CCCC1 | 18.3
